What all share (assay): phage FACS on peptide-loaded T2 cells
For assay [1], the target named is T1, 009-AAAA (…) / HLA-A*0201 complex on T2 cells (human).
T1 construct: Control peptide with alanines at positions 4-7; also called EXT009-AAAA; 009-AAAA (position 4-7)

Assay [2] addresses T2, 009-mut9 (…) / HLA-A*0201 complex on T2 cells (human).
T2 construct: also called EXT009-mut9

The target in assay [3] is T3, 009-mut6 (…) / HLA-A*0201 complex on T2 cells (human).
T3 construct: also called EXT009-mut6

Assay [4] addresses T4, 009-mut8 (…) / HLA-A*0201 complex on T2 cells (human).
T4 construct: also called EXT009-mut8

For assay [5], the target named is T5, 009-mut5 (…) / HLA-A*0201 complex on T2 cells (human).
T5 construct: also called EXT009-mut5

Assay [6] has as its target T6, 009-mut3 (…) / HLA-A*0201 complex on T2 cells (human).
T6 construct: also called EXT009-mut3; Pr302A

Assay [7] deals with T7, 009-mut7 (…) / HLA-A*0201 complex on T2 cells (human).
T7 construct: also called EXT009-mut7; Pr306A

The target in assay [8] is T8, PRA300-309 (…) / HLA-A*0201 complex (human).
T8 construct: also called PRAME300; PRAME P300

Assay [9] has as its target T9, 009-mut10 (…) / HLA-A*0201 complex on T2 cells (human).
T9 construct: Alanine variant at peptide position 10

Assay [10] deals with T1, 009-AAAA (…) / HLA-A*0201 complex on T2 …. The source holds these as a separate data set.
For assay [11], the target named is T10, 009-mut4 (…) / HLA-A*0201 complex on T2 cells (human).
T10 construct: also called EXT009-mut4

B1: EXT009-20 phage (scFv phage clone) (scFv)
scFv: QAVLTQPPSASGTPGQRVTIS[letters of about 80 residues omitted]VFGTGTKVTVLGSRGGGGSGGGGSGGGGSLEMAQVQLVQSGAEVRKPGASVKVSCKASGGTFSSYAISWVRQAPGQGLEWMGRIIPILGIANYAQKFQGRVTITADKSTSTAYMELSSLRSEDTAVYYCARHYGQWWDYWGQGTLVTVSS
On to B1, for which the binding result in [1] is “no binding”. Further, the MFI in assay [2] was 85.6; in assay [3], 20100; in [4] it was 88.9; in [5] it was 8440; in assay [6], 5310; in assay [7], 2560. For the same molecule, the MFI stood at 13200 in assay [8], 85.7 in [9], 106 in assay [10] and 8480 in assay [11].

The record behind these values is patent US20180148503A1 (Memorial Sloan Kettering, published 2018).
